# About 5,700 (2.6%) of roughly 220,000 compounds were called active. The shares of active, inactive and inconclusive entries below differ from those in the screen. Calls come from the whole dose curve; as a rule, active = well fitted inhibition curve with a large enough effect; inconclusive = small, poorly fitted or top-dose-only effect; inactive = no such curve, though single readings can be large or run the other way. Potencies of inconclusive entries are doubtful fits and often do not repeat.
# Biological target: Lysine-specific demethylase 5B (Homo sapiens) (UniProt Q9UGL1)
# UniProt Q9UGL1, sequence (Q9UGL1 whole entry, looked up): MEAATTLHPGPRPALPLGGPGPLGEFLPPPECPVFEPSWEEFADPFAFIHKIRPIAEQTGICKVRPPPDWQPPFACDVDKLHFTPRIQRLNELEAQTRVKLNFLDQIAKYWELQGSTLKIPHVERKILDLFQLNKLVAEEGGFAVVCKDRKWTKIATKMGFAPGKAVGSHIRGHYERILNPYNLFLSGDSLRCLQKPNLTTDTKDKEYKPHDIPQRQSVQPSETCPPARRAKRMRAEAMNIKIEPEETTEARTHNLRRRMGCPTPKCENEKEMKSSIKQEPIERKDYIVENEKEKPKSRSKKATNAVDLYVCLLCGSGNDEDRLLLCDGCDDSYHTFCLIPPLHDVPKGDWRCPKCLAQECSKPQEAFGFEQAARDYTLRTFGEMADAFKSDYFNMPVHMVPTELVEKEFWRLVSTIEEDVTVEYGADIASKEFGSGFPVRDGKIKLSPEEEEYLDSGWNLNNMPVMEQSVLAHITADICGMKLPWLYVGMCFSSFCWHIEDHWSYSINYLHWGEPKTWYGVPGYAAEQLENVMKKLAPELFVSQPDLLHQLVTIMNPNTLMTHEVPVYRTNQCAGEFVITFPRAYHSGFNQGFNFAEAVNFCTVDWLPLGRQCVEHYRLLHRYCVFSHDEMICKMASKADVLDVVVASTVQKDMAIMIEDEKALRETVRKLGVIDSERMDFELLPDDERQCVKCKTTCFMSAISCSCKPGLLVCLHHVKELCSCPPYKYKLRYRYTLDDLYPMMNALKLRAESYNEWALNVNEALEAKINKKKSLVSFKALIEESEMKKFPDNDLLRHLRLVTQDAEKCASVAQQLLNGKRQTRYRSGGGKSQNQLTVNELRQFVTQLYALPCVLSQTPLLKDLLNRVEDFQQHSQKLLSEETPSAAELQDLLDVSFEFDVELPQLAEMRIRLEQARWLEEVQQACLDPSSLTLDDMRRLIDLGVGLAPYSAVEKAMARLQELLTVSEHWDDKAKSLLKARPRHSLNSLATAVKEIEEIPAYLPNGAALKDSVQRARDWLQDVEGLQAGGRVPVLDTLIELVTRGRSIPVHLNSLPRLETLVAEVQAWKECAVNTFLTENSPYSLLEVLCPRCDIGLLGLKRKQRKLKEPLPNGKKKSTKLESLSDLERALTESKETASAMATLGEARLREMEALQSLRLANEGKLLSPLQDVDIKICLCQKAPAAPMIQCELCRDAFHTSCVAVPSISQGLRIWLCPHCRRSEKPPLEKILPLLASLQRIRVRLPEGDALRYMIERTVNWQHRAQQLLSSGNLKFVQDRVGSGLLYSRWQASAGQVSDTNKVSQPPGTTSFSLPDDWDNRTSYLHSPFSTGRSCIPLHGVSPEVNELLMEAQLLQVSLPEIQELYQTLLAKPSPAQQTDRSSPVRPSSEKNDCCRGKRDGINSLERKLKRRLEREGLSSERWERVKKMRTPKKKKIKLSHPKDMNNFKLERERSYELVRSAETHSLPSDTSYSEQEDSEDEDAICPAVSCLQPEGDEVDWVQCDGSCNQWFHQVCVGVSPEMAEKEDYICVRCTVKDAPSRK
# Assay: Primary screen for KDM5B Histone Demethylases FDH-coupled qHTS; note: nearly all actives have a fitted effect of over 70% in size
# Conditions: FDH-coupled NADH fluorescence (FDH is formaldehyde dehydrogenase); series mostly up to 57.7 µM
# Summary of the method: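 Measured: NADH fluorescence change, 30 min, RT. System: KDM5BΔAP 200 nM final, H3K4me3 peptide, α-KG, Fe(II), ascorbate, NAD⁺ plus FDH, pH 7.5 HEPES. Compounds: titrated, 10 min pre-incubation with enzyme.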
# Potency is the fitted concentration of half-maximal effect; tags give direction and shape of the fitted curve.
row,SMILES,Potency
1,COC(=O)c1ccccc1NC(=O)Cn1ccn2nc(-c3ccccc3)c(CO)c2c1=O,"inconclusive: 25.1 µM [inhibitor, partial curve, poor fit]"
2,CCc1nc2c(c(-c3ccc(Cl)cc3)n1)CCN([S+](=O)([O-])c1ccccc1)CC2,inactive
3,CCC(C)NC(=O)c1sccc1-c1ccccc1 (centres undefined),inactive
4,COc1cccc(-c2ccc(C#N)c(SCC(=O)Nc3ccc(C(C)=O)cc3)n2)c1,"inconclusive: 6.31 µM [inhibitor, full curve, poor fit]"
5,O=C(CC1C(=O)NCCN1CC(c1ccccc1)c1ccccc1)NCc1ccon1 (centres undefined),"inconclusive: 12.6 µM [inhibitor, partial curve, poor fit]"
6,CCCC1NC(=O)N(Cc2ncc(-c3ccc(Cl)cc3)o2)C1=O (centres undefined),inactive
7,CCS(=O)(=O)N1CCc2cc(C(=O)Nc3cc(OC)c(Cl)cc3OC)ccc21,"inconclusive: 39.8 µM [inhibitor, single point]"
8,COc1ccc(-c2nc3nccc(-c4ccco4)n3n2)c(OC)c1,active: 22.4 µM
9,COCCC(=O)N1CCc2c(n(Cc3ccc(OC)cc3)n(Cc3ccccc3)c2=O)C1,inactive
10,Cc1c(CC(=O)NCCCN2CCOCC2)c(=O)oc2c(C)c(O)ccc12,"inconclusive: 22.4 µM [inhibitor, partial curve, poor fit]"
11,O=C(Nc1ccc(F)cc1)c1ccnc2[nH]ccc12,inactive
12,CN(C)C[C@@H]1CN(Cc2cccnc2)C[C@H]1NC(=O)C1(c2ccccc2)CC1,inactive
13,COc1ccc2c(c1)CCN=C2C[C@H]1CN(C(=O)NC2CCCCC2)CC[C@H]1CC(=O)O,"inconclusive: 28.2 µM [inhibitor, partial curve]"
14,COc1ccc(-c2cc(-c3cn[nH]c3)c3cncn3c2)cn1,active: 39.8 µM
15,N=c1oc2ccc(Cl)cc2cc1C(=O)NC1CCCCCC1,"inconclusive: 35.5 µM [inhibitor, partial curve, poor fit]"
16,CC1(c2ccccc2)N(Cc2ccccc2)C(=O)OC12CCN(Cc1cccc(C#N)c1)CC2 (centres undefined),"inconclusive: 39.8 µM [inhibitor, single point]"
17,CN(C)C(=O)CN1CCCN(Cc2ncc(-c3ccccc3)o2)CC1,inactive
18,Cc1cccc2c1NC(=O)C2(O)c1c[nH]c2ccccc12 (centres undefined),inactive
19,CCOc1ccccc1NC(=O)c1nnn(CC(=O)Nc2ccccc2CC)c1N,"inconclusive: 35.5 µM [inhibitor, partial curve, poor fit]"
20,CCOC(=O)c1nc(Nc2ccc(OC(C)C)cc2)c2ccccc2n1,inactive
21,COc1ccc(OC)c(NC(=O)COc2c(C)cc(C)cc2C)c1,inactive
22,CCC(C(=O)N1CCc2cn(CCOC)c3cccc(c23)C1)c1ccccc1 (centres undefined),"inconclusive: 31.6 µM [inhibitor, partial curve, poor fit]"
23,COc1ccc(NC(=O)c2[nH]nc3c2CSc2ccccc2-3)c(OC)c1,inactive

row,SMILES,Potency
1,Cc1ccc(-n2nc3c(N4CCC(C(=O)NCCC(C)C)CC4)nnc(C)c3c2C)cc1,"inconclusive: 5.01 µM [inhibitor, partial curve, poor fit]"
2,Cc1ccc2oc(=O)c3cc(C(=O)Nc4cccc(C#N)c4)sc3c2c1,"inconclusive: 11.2 µM [inhibitor, partial curve, poor fit]"
3,Cc1cccc(NC(=O)Nc2ccc(C)n(CC(=O)NCCC(C)C)c2=O)c1,"inconclusive: 25.1 µM [inhibitor, partial curve, poor fit]"
4,Cn1nccc1CN1CCC2(COc3ccccc3C(=O)N2)C1 (centres undefined),"inconclusive: 28.2 µM [inhibitor, partial curve]"
5,O=C(COc1ccccc1)N[C@H]1CO[C@H]2[C@@H]1OC[C@@H]2Nc1nccc(-c2cccs2)n1,active: 28.2 µM
6,Cc1nnc(NC(=O)CSCc2cc(=O)c3ccc(C)c(C)c3[nH]2)s1,"inconclusive: 28.2 µM [inhibitor, single point]"
7,CSc1cccc(NC(=O)C(C)Br)c1 (centres undefined),inactive
8,CC(C)c1ccc(CNC(=O)c2cc3c(s2)CCCC3)cc1,inactive
9,CC1=C(C(=O)Nc2ccccc2)C(c2ccc(C(C)(C)C)cc2)NC(=S)N1 (centres undefined),"inconclusive: 14.1 µM [inhibitor, partial curve, poor fit]"
10,COc1ccc(Cl)cc1NC(=O)CCCS(=O)(=O)c1nc(-c2ccc(OC)c(OC)c2)cc(C(F)(F)F)n1,"inconclusive: 35.5 µM [inhibitor, partial curve, poor fit]"
11,O=C(CCn1c(=O)c2ccccc2n(Cc2ccccc2)c1=O)NC1CCN(Cc2ccccc2)CC1,inactive
12,CN(C)C(=O)c1ccc2nccn2c1,active: 126 µM
13,CCOc1cc2[nH]c(=O)n(CCCCCC(=O)NC(C)CC)c(=O)c2cc1OCC (centres undefined),"inconclusive: 4.47 µM [inhibitor, partial curve, poor fit]"
14,COc1ccc(N2CCN(Cc3nc(-c4ccc(C)cc4)no3)CC2)cc1,"inconclusive: 39.8 µM [inhibitor, single point]"
15,O=C(Nc1ccccc1Cl)c1ccc(-c2ccccc2)cc1,"inconclusive: 35.5 µM [inhibitor, single point]"
16,COCCNC(=O)c1ccc(OC2CCN(C(C)CCSC)CC2)c(Cl)c1 (centres undefined),inactive
17,O=C(c1ccc2c(c1)OCO2)N1CCC2(CC1)CC(c1cccc(C(F)(F)F)c1)=NO2,"inconclusive: 2.82 µM [inhibitor, partial curve]"
18,CC(NC(=O)C1CC1)c1ccncc1 (centres undefined),inactive
19,CCCSc1nc2c(c(=O)n(C)c(=O)n2C)n1C/C=C/c1ccccc1,inactive
20,COCc1cc(C)n(CC(=O)Nc2cccc(C(C)=O)c2)c(=O)c1C#N,"inconclusive: 35.5 µM [inhibitor, partial curve, poor fit]"
21,CCOc1ccccc1CNC(=O)c1cccc(NC(=O)c2nnc(C)s2)c1,inactive
22,Cc1ccc(-c2nc3cc(NC(=O)c4cc(Br)ccc4Cl)ccc3o2)cc1,"inconclusive: 31.6 µM [inhibitor, partial curve, poor fit]"
23,O=C1/C(=C/c2ccsc2)CCc2ccccc21,inactive

row,SMILES,Potency
1,Cc1ccc(OCC(=O)Oc2ccccc2[N+](=O)[O-])cc1,"inconclusive: 17.8 µM [inhibitor, partial curve, poor fit]"
2,CC(=O)N1CCC(Cc2ccc(C(=O)NC3CC3)cc2)CC1,inactive
3,O=C(Nc1ccccc1)c1cc2n(n1)CC(c1ccc3c(c1)OCO3)OC2 (centres undefined),"inconclusive: 28.2 µM [inhibitor, single point]"
4,CCc1nn(-c2ccccc2)c(Oc2ccccc2F)c1CCC(=O)NCCOC,inactive
5,CCCN1CCN(C(=O)C2CCc3ncc(-c4ccsc4)n3C2)CC1 (centres undefined),"inconclusive: 15.8 µM [inhibitor, partial curve, poor fit]"
6,COc1ccc2c(c1)CCN=C2C[C@H]1CN(C(=O)c2ccc(C#N)cc2)CC[C@H]1CC(=O)O,"inconclusive: 28.2 µM [inhibitor, partial curve, poor fit]"
7,Cn1cc(-c2cnc3[nH]cc(CC(=O)NC4CCC4)c3c2)cn1,"inconclusive: 35.5 µM [inhibitor, partial curve, poor fit]"
8,CN(c1cc(=O)c2ccnc(-c3ccc(O)c(F)c3)c2o1)C1CCOCC1,active: 31.6 µM
9,Cc1onc(C(=O)NCC2Cn3cccc3CN2C)c1CN1CCCCC1 (centres undefined),"inconclusive: 17.8 µM [inhibitor, partial curve, poor fit]"
10,CC(=O)c1ccc(NC(=O)N[C@H]2CO[C@H]3[C@@H]2OC[C@H]3OCC(N)=O)cc1,inactive
11,CC(C)c1ccc(/C=C(\C#N)C(=O)NC2CCCC2)cc1,"inconclusive: 35.5 µM [inhibitor, partial curve, poor fit]"
12,O=C(c1ccc(F)cc1)N1CCN(c2nc3ncccc3o2)CC1,"inconclusive: 28.2 µM [inhibitor, single point]"
13,OCC1(O)CCCN(Cc2cnc(NCc3ccccc3)nc2)C1 (centres undefined),"inconclusive: 31.6 µM [inhibitor, partial curve, poor fit]"
14,COc1cccc(CNS(=O)(=O)c2cc(-c3cnn4c(C)cc(C)nc34)ccc2OC)c1,"inconclusive: 31.6 µM [inhibitor, partial curve, poor fit]"
15,COc1cccc(-c2nc(-c3c[nH]c(C(=O)N4CCCC4)c3)cs2)c1,"inconclusive: 25.1 µM [inhibitor, partial curve, poor fit]"
16,CCOc1ccc(S(=O)(=O)N2CCN(c3ccc(C)cc3C)CC2)c2ccccc12,"inconclusive: 25.1 µM [inhibitor, partial curve, poor fit]"
17,COc1cccc(CSc2nc(-c3ccccc3OC)nc3c2Cc2c(CO)cnc(C)c2O3)c1,"inconclusive: 22.4 µM [inhibitor, single point]"
18,COC(=O)c1ccc(C(=O)Oc2ccc(C(C)=O)cc2)cc1,inactive
19,CC(Oc1ccccc1)C(=O)N1CCC(n2cc(-c3nc(-c4ccccc4)no3)nn2)CC1 (centres undefined),inactive
20,COc1ccc(C(=O)Nc2ccc(N3CCN(S(C)(=O)=O)CC3)cc2)cc1OC,"inconclusive: 39.8 µM [inhibitor, single point]"
21,O=C(NCCc1cccc(F)c1)C1CC(=O)N(c2n[nH]c3ccccc23)C1 (centres undefined),active: 22.4 µM
22,O=C1CC(C(=O)Nc2ccccc2)c2c(nc(SCc3ccccc3Cl)[nH]c2=O)N1 (centres undefined),"inconclusive: 25.1 µM [inhibitor, single point]"
23,C[S+](=O)([O-])N1CCn2c(nnc2C(N)c2ccccc2)C1 (centres undefined),"inconclusive: 89.1 µM [inhibitor, partial curve, poor fit]"
